The results in this text go back to PubChem BioAssay AID1745853 (National Center for Advancing Translational Sciences (NCATS), 2022).

Some of the results follow. Shown are side measurements of this screen, not its main read-out; they come without a call.

Common to all, as to assay: Primary Screen for Target Class Profiling of Small Molecule Inhibitors of Methyltransferases
Test [1] has as its target Glycine N-methyltransferase (Homo sapiens) (UniProt Q14749). The following applies: purified enzyme, MTase-Glo SAH luminescence; measured here: GNMT inhibition; at 40 µM; stronger effect = lower value. An outline of the steps: (§1)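 Each enzyme was reacted with SAM and its substrate, with compounds tested once at 40 uM; SAH formed was read by MTase-Glo luminescence.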
For test [2], the target named is Guanidinoacetate N-methyltransferase (Homo sapiens) (UniProt Q14353). Conditions: purified enzyme, MTase-Glo SAH luminescence; measured here: GAMT inhibition; at 40 µM; stronger effect = lower value. An outline of the steps: as §1
The target of test [3] is Histamine N-methyltransferase (Homo sapiens) (UniProt P50135). The following applies: purified enzyme, MTase-Glo SAH luminescence; measured here: HNMT inhibition; at 40 µM; stronger effect = lower value. An outline of the steps:
as §1

Test [4] addresses Nicotinamide N-methyltransferase (Homo sapiens) (UniProt P40261). The following applies: purified enzyme, MTase-Glo SAH luminescence; measured here: NNMT inhibition; at 40 µM; stronger effect = lower value. Put shortly: as §1
For test [5], the target named is Phenylethanolamine N-methyltransferase (Homo sapiens) (UniProt P11086). Conditions: purified enzyme, MTase-Glo SAH luminescence; measured here: PNMT inhibition; at 40 µM; stronger effect = lower value. Put shortly: as §1
On the % scale 0 is the no-effect control and ±100 the full control effect.

For `CC1(C(=O)NC2CCCCCCC2)Cc2ccccc2C(=O)N1CC1CCCO1` (stereo not given), the activity change, negative = inhibition in test [1] was -5.21%; in test [2] it was 0.452%; in test [3], -2.07%; in test [4], -0.484%; in test [5], -7%.

As for `O=c1c2ccccc2n2c(-c3cc(Br)cs3)nnc2n1CCc1ccccc1`, the activity change, negative = inhibition in test [1] was 0.421%; in test [2] it was 0%; in test [3], 5.89%; in test [4] it was 5.87%; in test [5] it was -1.94%.

With `CCCN1C(=O)c2c(C(=O)NCc3ccc(OC(C)C)cc3)ncn2CC1(C)C(=O)NCc1ccc(F)cc1` (stereo not given), the activity change, negative = inhibition came out at 2.51% in test [1]; 0% in test [2]; 3.32% in test [3]; 4.45% in test [4]; 5.81% in test [5].

`CCOC(=O)C1CCCN(C(=O)C2CCc3nnc(C4CCN(C(C)=O)CC4)n32)C1` (stereo not given): the activity change, negative = inhibition in test [1] is -3.07%; in test [2], -0.405%; in test [3], 0.062%; in test [4] it was 0.302%; in test [5], 1.97%.

Regarding `CCN1CCN(C(=O)C2CCc3ncc(-c4ccsc4)n3C2)CC1` (stereo not given), the activity change, negative = inhibition was -2.81% in test [1]; -1.85% in test [2]; -4.72% in test [3]; -6.86% in test [4]; -2.27% in test [5].

Take `Brc1c(Br)c(Br)c2[nH]cnc2c1Br`: the activity change, negative = inhibition is -61.7% in test [1]; -19.9% in test [2]; -32.2% in test [3]; -41.9% in test [4]; -42.4% in test [5].

`O=c1cc(-c2ccncc2)oc2c(-c3cccc(CO)c3)nccc12`: the activity change, negative = inhibition in test [1] was -25.9%; in test [2], -9.33%; in test [3] it was -26.9%; in test [4] it was -16.5%; in test [5] it was -23%.

Regarding `COC(=O)[C@H](NC(=O)[C@@H]1C[C@H](NC(=O)Nc2ccc(OC)cc2)CN1C(=O)c1cccn1C)C(C)C`, the activity change, negative = inhibition is 3.15% in test [1]; -3.13% in test [2]; 1.09% in test [3]; -5.26% in test [4]; 14.6% in test [5].

For `O=C(NCc1ccc(OC(F)(F)F)cc1)C1c2ccccc2C(=O)N1C1CCOCC1` (stereo not given), the activity change, negative = inhibition in test [1] is 2.05%; in test [2], -1.93%; in test [3], 9.41%; in test [4], -14.9%; in test [5] it was 2.32%.

`Cc1ccc(CCNC(=O)Cn2c(=O)oc3cc(S(=O)(=O)NC4CCCC4)ccc32)cc1`: the activity change, negative = inhibition in test [1] was -1.49%; in test [2] it was 2.85%; in test [3], -0.925%; in test [4], 6.27%; in test [5], -6.79%.

Regarding `Cc1cccc(N2C(=O)c3cc4sccc4n3CC2(C)C(=O)NC2CCCCC2)c1C` (stereo not given), the activity change, negative = inhibition was 3.03% in test [1]; 0% in test [2]; 6.6% in test [3]; 10.3% in test [4]; -0.139% in test [5].

As to `O=C(NC1CC1)c1nc(-c2ccc(F)cc2)c2cnccn12`, the activity change, negative = inhibition is -26.9% in test [1]; -13.4% in test [2]; -11.3% in test [3]; -29.2% in test [4]; -8.52% in test [5].

For the compound `CCOc1ccc(CNC(=O)Cn2ccc3cc(S(=O)(=O)N4CCC(C)CC4)ccc32)cc1`, the activity change, negative = inhibition in test [1] is 1.75%; in test [2], 1.96%; in test [3], -0.324%; in test [4], -4.77%; in test [5], -2.61%.

As to `O=C(Cc1c[nH]c2ccccc12)NCCc1c[nH]c2ccc(Cl)cc12`, the activity change, negative = inhibition in test [1] was -12.1%; in test [2], 1.24%; in test [3] it was -11.2%; in test [4] it was -8.34%; in test [5], -9.4%.

As for `CC1(C(=O)NC2CCCC2)Cn2c(cc3ccccc32)C(=O)N1CCc1ccccc1` (stereo not given), the activity change, negative = inhibition in test [1] is -1.96%; in test [2], 4.03%; in test [3], -5.76%; in test [4], -6.67%; in test [5] it was 0.349%.

In the case of `CC(C)OCCCn1c(=O)c2ccccc2n2c(SCC(=O)Nc3cccc(Cl)c3)nnc12`, the activity change, negative = inhibition in test [1] is -7.14%; in test [2], 4.42%; in test [3] it was -1.56%; in test [4], -8.09%; in test [5] it was -2.81%.

As for `Cc1ccc(C)c(CN2CC(=O)N(Cc3cccc(F)c3)c3ccccc3S2(=O)=O)c1`, the activity change, negative = inhibition in test [1] was -9.65%; in test [2] it was -2.81%; in test [3], -11.6%; in test [4], -18.9%; in test [5], -12.8%.

As to `Cc1ccc(NC(=O)Cn2nc3n(Cc4ccccc4)c(=O)c4ccccc4n3c2=O)cc1C`, the activity change, negative = inhibition in test [1] worked out at 4.91%; in test [2], 0%; in test [3], 8.85%; in test [4], 2.04%; in test [5], 1.75%.

Consider `OCc1ccc(CN2C[C@H](O)C[C@H]2c2nc(-c3ccc(F)cc3)no2)o1`, for which the activity change, negative = inhibition in test [1] was -9%; in test [2], -0.82%; in test [3] it was -1.56%; in test [4] it was 3.04%; in test [5] it was -1.54%.

As for `CCC1OC(=O)C(C)CC(C)C(=O)/C(C)=C/C(C)C(=O)/C=C/C1(C)O` (stereo not given), the activity change, negative = inhibition was 0.104% in test [1]; 7.82% in test [2]; 8.77% in test [3]; -5.97% in test [4]; 4.28% in test [5].

As to `CCc1ccc(NC(=O)Cn2nc3nc(Nc4ccc(C)cc4)ccn3c2=O)cc1`, the activity change, negative = inhibition is -1.35% in test [1]; 4.04% in test [2]; -10.4% in test [3]; -5.06% in test [4]; -4.52% in test [5].

`CC1(C(=O)NC2CCCCC2)Cn2c(ccc2-c2ccccc2)C(=O)N1CCCc1ccccc1` (stereo not given): the activity change, negative = inhibition in test [1] turned out to be 6.25%; in test [2], 0.815%; in test [3] it was 7.41%; in test [4], 12.3%; in test [5], 6.16%.

Take `CCN1CCN(C(=O)C23CCC=C2N(C2CCCC2)C(=O)CC3)CC1` (stereo not given): the activity change, negative = inhibition is -1.84% in test [1]; -2.14% in test [2]; 1.47% in test [3]; 2.89% in test [4]; 1.81% in test [5].

Consider `Cc1ccc([S+](=O)([O-])N2CCN(c3nc4ncccc4o3)CC2)cc1`, for which the activity change, negative = inhibition is -4.04% in test [1]; -5.58% in test [2]; -3.03% in test [3]; -11.3% in test [4]; -4.43% in test [5].

In the case of `C=CCn1c(=O)c2ccc(C(=O)NC(C)CC)cc2n2c(=O)[nH]nc12` (stereo not given), the activity change, negative = inhibition in test [1] is -1.26%; in test [2], 0.561%; in test [3], 6.41%; in test [4] it was 3.56%; in test [5], -3.31%.

In the case of `COc1ccc(C2=N[C@@H](c3ccc(Cl)cc3)[C@@H](c3ccc(Cl)cc3)N2C(=O)N2CCNC(=O)C2)c(OC(C)C)c1`, the activity change, negative = inhibition in test [1] is 1.27%; in test [2], 8.52%; in test [3] it was 0.477%; in test [4] it was -40.5%; in test [5] it was -1.55%.

For the compound `Cc1ccc(C)c(NS(=O)(=O)c2cc3c(cc2Cl)n(C)c(=O)n3C)c1`, the activity change, negative = inhibition is 11.7% in test [1]; 0.151% in test [2]; -1.22% in test [3]; 4.89% in test [4]; 8.42% in test [5].

`CCc1ccccc1NC(=O)N1CCn2c(C)ccc2C1C(C)C` (stereo not given): the activity change, negative = inhibition in test [1] was 0.654%; in test [2], 4.77%; in test [3], -10.3%; in test [4] it was -7.45%; in test [5] it was -4.12%.

On to `O=C(Nc1cccnn1)N1CCN(c2nccc(-c3ccc(F)c(F)c3)n2)CC1`, for which the activity change, negative = inhibition in test [1] is -5.86%; in test [2], -8.02%; in test [3], -1.52%; in test [4] it was -15%; in test [5], -5.93%.

On to `O=C(CCCn1cncn1)NC1CC(c2cc(N3CCOCC3)ncn2)C1` (stereo not given), for which the activity change, negative = inhibition in test [1] is -5.01%; in test [2], -3.95%; in test [3], -3.28%; in test [4] it was -11.4%; in test [5] it was -5.82%.
